The whole screen tested about 310,000 compounds, of which about 14,000 (4.5%) showed an effect of 50% or more. Effects have a minus sign here. The list shows a part of the results.
What follows are molecules tested against human ether-à-go-go-related gene (hERG) potassium channel (human, UniProt Q12809) (assay: primary screen, population patch clamp on CHO cells stably expressing hERG).
Chain of human ether-à-go-go-related gene (hERG) potassium channel (Q12809 whole entry, looked up): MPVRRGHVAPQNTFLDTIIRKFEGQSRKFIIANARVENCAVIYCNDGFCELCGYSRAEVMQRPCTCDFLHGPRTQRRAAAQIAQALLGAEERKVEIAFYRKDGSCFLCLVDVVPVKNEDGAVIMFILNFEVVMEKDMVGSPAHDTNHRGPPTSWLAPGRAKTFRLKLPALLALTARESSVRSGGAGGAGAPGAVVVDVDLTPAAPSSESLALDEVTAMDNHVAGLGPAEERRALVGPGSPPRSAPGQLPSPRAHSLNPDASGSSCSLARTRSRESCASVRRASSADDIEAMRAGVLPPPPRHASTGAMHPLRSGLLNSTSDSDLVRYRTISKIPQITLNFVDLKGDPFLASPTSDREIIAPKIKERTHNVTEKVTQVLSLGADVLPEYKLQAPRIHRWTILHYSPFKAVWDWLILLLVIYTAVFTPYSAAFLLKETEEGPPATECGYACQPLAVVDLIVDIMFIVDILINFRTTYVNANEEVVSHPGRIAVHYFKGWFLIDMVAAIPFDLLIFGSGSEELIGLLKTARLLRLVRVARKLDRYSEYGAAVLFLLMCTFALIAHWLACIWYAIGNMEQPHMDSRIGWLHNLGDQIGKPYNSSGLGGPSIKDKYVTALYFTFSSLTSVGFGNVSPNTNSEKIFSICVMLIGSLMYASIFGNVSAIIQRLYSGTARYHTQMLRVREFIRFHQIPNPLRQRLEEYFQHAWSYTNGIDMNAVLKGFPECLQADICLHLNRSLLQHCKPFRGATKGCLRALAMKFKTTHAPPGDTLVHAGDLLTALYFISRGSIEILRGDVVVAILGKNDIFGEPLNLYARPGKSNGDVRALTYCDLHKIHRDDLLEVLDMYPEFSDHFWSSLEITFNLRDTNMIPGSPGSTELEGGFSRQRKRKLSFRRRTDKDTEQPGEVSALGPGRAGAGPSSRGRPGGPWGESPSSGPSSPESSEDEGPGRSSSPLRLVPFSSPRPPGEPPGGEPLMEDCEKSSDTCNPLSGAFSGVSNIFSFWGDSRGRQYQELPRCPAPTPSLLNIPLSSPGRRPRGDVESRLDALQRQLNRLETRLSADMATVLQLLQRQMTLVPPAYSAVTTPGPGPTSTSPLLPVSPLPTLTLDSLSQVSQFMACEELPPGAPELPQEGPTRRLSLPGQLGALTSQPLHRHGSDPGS
`C[C@@H](CSc1ccccc1)CN1CC[C@H](O)CCC1=O` was tested, and the “hERG current change (%, negative = inhibition) at 10uM” value was 9.95%.
`CN(c1ccccc1)S(=O)(=O)c1cc(C(=O)NCCCn2ccnc2)ccc1Cl` was tested, and the “hERG current change (%, negative = inhibition) at 10uM” value was -60.3%.
`Cc1cc(C(=O)OCC(=O)NCCc2ccccc2)c(C)o1` was tested, and the “hERG current change (%, negative = inhibition) at 10uM” value was -7.25%.
`COc1ccc(/C=C2\CCCC3C2=NN(C(=O)CSc2n[nH]c(N)n2)C3c2ccc(OC)cc2)cc1` (stereo not drawn) was tested, and the “hERG current change (%, negative = inhibition) at 10uM” value was 23.8%.
`CCCc1cc(=O)oc2cc(C)cc(OCC(=O)NCCN3CCOCC3)c12` was tested, and the “hERG current change (%, negative = inhibition) at 10uM” value was 6.05%.
For `CN(CC(=O)Nc1ccc(Cl)cc1)C1=NS(=O)(=O)c2ccccc21`, the “hERG current change (%, negative = inhibition) at 10uM” value was 10.5%.
With `COc1cccc(CNC(=O)CSCC(=O)Nc2cc(C)on2)c1` the “hERG current change (%, negative = inhibition) at 10uM” value was 13.9%.
For `CCN1CCN(C(=O)CSCc2nc(-c3ccc(OC)c(OC)c3)oc2C)CC1`, the “hERG current change (%, negative = inhibition) at 10uM” value was -31.9%.
For `CC(C)N1CC(C(=O)Nc2ccc(C#N)cc2)CC1=O` (stereo not drawn), the “hERG current change (%, negative = inhibition) at 10uM” value was 2.45%.
In the case of `NC(=S)N/N=C/c1ccc(-c2ccc(Cl)c(Cl)c2)o1`, the “hERG current change (%, negative = inhibition) at 10uM” value is reported as 7.09%.
With `COC(=O)N/N=C/c1cn(Cc2ccccc2Cl)c2ccccc12` the “hERG current change (%, negative = inhibition) at 10uM” value was 12.6%.
`Cc1cccn2c(=O)c(/C=C(\C#N)C(=O)NC3CCS(=O)(=O)C3)c(N3CCC(C)CC3)nc12` (stereo not drawn) was tested, and the “hERG current change (%, negative = inhibition) at 10uM” value was -33.5%.
`Cn1ccnc1Sc1ccc(/C=N/NC(=O)c2ccccc2O)cc1[N+](=O)[O-]` was tested, and the “hERG current change (%, negative = inhibition) at 10uM” value was -7.21%.
In the case of `CN(CC(=O)Nc1cccc(F)c1)C(=O)CCNC(=O)c1ccco1`, the “hERG current change (%, negative = inhibition) at 10uM” value is reported as 16.7%.
`Cn1c(C(=O)O)cc2cc(Oc3ccccc3)ccc21` was tested, and the “hERG current change (%, negative = inhibition) at 10uM” value was 6.78%.
For `CC(=O)c1ccc(-c2ccc(C(=O)NCC3CCCO3)o2)cc1` (stereo not drawn), the “hERG current change (%, negative = inhibition) at 10uM” value was -50.5%.
For `OC1/C(=C/c2ccccc2F)N2CCC1CC2` (stereo not drawn), the “hERG current change (%, negative = inhibition) at 10uM” value was 10.5%.
`COc1ccc(NC(=O)CSc2ccc(-c3sc(C)nc3C)nn2)cc1` was tested, and the “hERG current change (%, negative = inhibition) at 10uM” value was 14.4%.
`CCOC(=O)c1cc(-c2c(Cl)cccc2Cl)no1` was tested, and the “hERG current change (%, negative = inhibition) at 10uM” value was 11.2%.
`C/C=C(\CS(=O)(=O)c1ccccc1)S(=O)(=O)c1ccccc1` was tested, and the “hERG current change (%, negative = inhibition) at 10uM” value was -1.47%.
`Cc1occc1C(=O)N1CCN(S(C)(=O)=O)CC1` was tested, and the “hERG current change (%, negative = inhibition) at 10uM” value was 7.58%.
In the case of `CSCC(C)N1CCC(CO)(CCc2ccccc2)CC1` (stereo not drawn), the “hERG current change (%, negative = inhibition) at 10uM” value is reported as -29.4%.
`CCn1cc(S(=O)(=O)Nc2ccc3c(c2)OCCO3)cn1` was tested, and the “hERG current change (%, negative = inhibition) at 10uM” value was 35.4%.
For `Cc1nc(C)c(-c2csc(Nc3ccc(O)cc3C)n2)s1`, the “hERG current change (%, negative = inhibition) at 10uM” value was -3.69%.
With `COc1cc2ccccc2cc1C(=O)OCC(=O)N(C)c1c(N)n(Cc2ccccc2)c(=O)[nH]c1=O` the “hERG current change (%, negative = inhibition) at 10uM” value was 3.29%.
In the case of `Cc1cc(C(=O)N/N=C/c2cc(Br)cc([N+](=O)[O-])c2O)c2ccccc2n1`, the “hERG current change (%, negative = inhibition) at 10uM” value is reported as -5.48%.
In the case of `Cc1ccc(C)c(S(=O)(=O)N2CCN(CC(=O)N3CCc4ccccc4C3)CC2)c1.O=C(O)C(=O)O`, the “hERG current change (%, negative = inhibition) at 10uM” value is reported as -25.9%.
With `CC(Nc1cc(=O)n(C)c(=O)[nH]1)c1ccccc1` (stereo not drawn) the “hERG current change (%, negative = inhibition) at 10uM” value was 8.44%.
For `Cl.O=C(CN1CCN(C2CCCCC2)CC1)NCCC1=CCCCC1`, the “hERG current change (%, negative = inhibition) at 10uM” value was -39.8%.
`CCc1cc(SC#N)cc(C)c1N` was tested, and the “hERG current change (%, negative = inhibition) at 10uM” value was 7.52%.
For `COc1ccc(S(=O)(=O)Nc2c(C)n(C)n(-c3ccccc3)c2=O)cc1`, the “hERG current change (%, negative = inhibition) at 10uM” value was -2.18%.
In the case of `Cn1cc(CCC(=O)NCc2cccc(Cl)c2)c2ccccc21`, the “hERG current change (%, negative = inhibition) at 10uM” value is reported as -4.57%.
`O=C1C2C3C=CC(C2C(=O)N1c1cccc(O)c1)C1C2C(=O)N(c4cccc(O)c4)C(=O)C2C31` (stereo not drawn) was tested, and the “hERG current change (%, negative = inhibition) at 10uM” value was 6.6%.
`O=C(CN1C(=O)S/C(=C\c2ccccc2)C1=O)NCCCn1ccnc1` was tested, and the “hERG current change (%, negative = inhibition) at 10uM” value was -23.4%.
`CCCCc1ccc(NC(=S)NCCN2CCOCC2)cc1` was tested, and the “hERG current change (%, negative = inhibition) at 10uM” value was -39%.
For `CSc1ccccc1C(=O)NCCSc1ccccc1`, the “hERG current change (%, negative = inhibition) at 10uM” value was -12.2%.
In the case of `O=C(CNC(=O)c1cccc(Br)c1)N/N=C/c1ccc[nH]1`, the “hERG current change (%, negative = inhibition) at 10uM” value is reported as 22.5%.
`Clc1ccccc1CN1CCN(/N=C/C=C/c2ccco2)CC1` was tested, and the “hERG current change (%, negative = inhibition) at 10uM” value was 5.7%.
In the case of `OCCN1CCN(CCCN2c3ccccc3Sc3ccc(Cl)cc32)CC1`, the “hERG current change (%, negative = inhibition) at 10uM” value is reported as -49.3%.
For `COc1cccc(CNc2ccc(C)c(Cl)c2)c1`, the “hERG current change (%, negative = inhibition) at 10uM” value was 24.8%.
With `Cc1c(C(=O)N(Cc2nccn2C)C(C)C)oc2c(F)cccc12` the “hERG current change (%, negative = inhibition) at 10uM” value was -22.3%.
For `COc1cc2c(cc1OC)CN(CC(=O)Nc1ccc(Cl)cc1Cl)CC2`, the “hERG current change (%, negative = inhibition) at 10uM” value was -11.7%.
`N#CCCN(C(=O)COC(=O)c1cc(=O)c2ccccc2o1)c1ccccc1` was tested, and the “hERG current change (%, negative = inhibition) at 10uM” value was 5.03%.
For `CCCCNC(=O)O[C@H]1C[C@@H]2CCN3C(=O)CCC(C)(C)[C@H](C1)[C@H]23`, the “hERG current change (%, negative = inhibition) at 10uM” value was -23.5%.
`COc1cc(/C=N/n2cnc3c(sc4nc(C)cc(C)c43)c2=O)ccc1O` was tested, and the “hERG current change (%, negative = inhibition) at 10uM” value was 13.5%.
In the case of `Brc1cccc(-c2nnco2)c1`, the “hERG current change (%, negative = inhibition) at 10uM” value is reported as 2.43%.
For `Cc1ccc(NC(=O)Cn2c(=O)oc3ccccc32)c(C)c1`, the “hERG current change (%, negative = inhibition) at 10uM” value was 16.1%.
For `O=C1CCCN1CCCNc1ccc(S(=O)(=O)N2CCCCC2)cn1`, the “hERG current change (%, negative = inhibition) at 10uM” value was -8.92%.
In the case of `COc1cc(NC(=O)COC(C)=O)c(C)cc1[N+](=O)[O-]`, the “hERG current change (%, negative = inhibition) at 10uM” value is reported as 24%.
`O=C1NC(Cc2c[nH]c3ccccc23)C(=O)N1Cc1cccc2ccccc12` (stereo not drawn) was tested, and the “hERG current change (%, negative = inhibition) at 10uM” value was 11.4%.
For `COc1ccc(NC(=O)N(Cc2cccnc2)Cc2ccccc2Cl)c(OC)c1`, the “hERG current change (%, negative = inhibition) at 10uM” value was -25.1%.
In the case of `CCOc1cc(/C=C/C(=O)N(CC)CC(=O)NCc2cccs2)cc(Cl)c1OC`, the “hERG current change (%, negative = inhibition) at 10uM” value is reported as -27.7%.
For `O=C(NC(Cc1ccccc1)C(=O)O)C1CCN(S(=O)(=O)c2ccccc2C(F)(F)F)CC1` (stereo not drawn), the “hERG current change (%, negative = inhibition) at 10uM” value was 17.3%.
`O=C(Nc1ccc2c(c1)oc1ccccc12)c1cccnc1` was tested, and the “hERG current change (%, negative = inhibition) at 10uM” value was 14.1%.
`CN(c1cccc(NC(=O)c2ccccc2N(Cc2ccccc2)S(C)(=O)=O)c1)S(C)(=O)=O` was tested, and the “hERG current change (%, negative = inhibition) at 10uM” value was 5.32%.
In the case of `CN1CCN(C(=O)COc2ccc(Oc3ccccc3)cc2)CC1`, the “hERG current change (%, negative = inhibition) at 10uM” value is reported as -15.2%.
For `O=C1N(Cc2cccnc2)C[C@@H]2C[C@@H](c3ccc(C(F)(F)F)cc3)N3CCC[C@@]123`, the “hERG current change (%, negative = inhibition) at 10uM” value was -53.9%.
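Further: peak tail current of the secondary pulse compared with the same well before compound.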
